To fix the notation:
B1: LINE1-mini (parent)
chain: GGCAGAGCUCAACACAGCGUGGCAAAGUGGCUGUGGCUAGACUGCC

The source gives no read counts; variants with many changes may rest on few reads.

The variants in the series derive from B1. Description: self-cleavage, relative activity (ratio to wild type); higher = more cleavage; in vitro, sequencing; the parent is a self-cleaving ribozyme.
Turning to GGCAUAGCUCAACAGGGCGUGGCAAAGUGGCUGUGGCUAGACUGCC [G5U C15G A16G], the self-cleavage was 0.05.
GGCAUAACUCAAUACAGCGUGGCAAAGUGGCUGUGGUUAGACUGCC [G5U G7A C13U C37U]: the self-cleavage came out at 0.38.
Turning to GGCAUAGCUCAAUACAGCGUGGGAAAGUGGCUCUGGCUAGACUGCC [G5U C13U C23G G33C], the self-cleavage was 0.02.
Take GGCAUAGCUCAAUACAGCAUGGCAAAGUGGCUGUGGCUACACUGCC [G5U C13U G19A G40C]: the self-cleavage was determined as 0.18.
On to GGCAUAGCUCAACAUAGCGUGGCAAAGUGGCUGUGACUAGACUGCC [G5U C15U G36A], for which the self-cleavage amounted to 0.15.
On to GGCAUAGCUCAAUAGAGCGUGGCAACGUGUCUGUGGCUAGACUGAG [G5U C13U C15G A26C G30U C45A C46G], for which the self-cleavage was determined as 0.01.
To GGCAUAGCUCAACACAGAGUGGCAAAGUGGCUGUGGCUAGACUGCU [G5U C18A C46U] belongs 0.08; to GGCAUAGCUCAAUACAGCGUGUAAAAGUGGAUGUGGCUAGUCUGCC [G5U C13U G22U C23A C31A A41U], 0.01.
As for GGCAUAGCUCAACACAGUGUGGCAAUGUGGCUGUGGCUAGACUGCC [G5U C18U A26U], the figure is 0.03.
To GGCAUAGCUCAACACAGUGUGGCAACGUGGCUGUGGCUAGACUGCC [G5U C18U A26C] belongs 0.19.
Take GGCAUAGCUCAAUACUGGGUGCCAAAGUAGCUGUGGCUAGACUGCC [G5U C13U A16U C18G G22C G29A]: the self-cleavage was 0.03.
On to GGCAUAGCUCAAAACAUCGUGGCAAAGUGGCUGUGGCUAGACUGCG [G5U C13A G17U C46G], for which the self-cleavage is 0.07.
Regarding GGCAUAGCUCAACACAGAGUGGCAAACUGGCUGUGGCUAGAUUGCC [G5U C18A G27C C42U], the self-cleavage is 0.05.
Take GGCAUAGCUCAAGACAGCGUGCCAAAGUGGCUUUGGGUAGACUGCC [G5U C13G G22C G33U C37G]: the self-cleavage worked out at 0.03.
To GGCAUAGCUCAACACAGCGUGGGUAAGUGGCUGUGGCUAGAGUGCC [G5U C23G A24U C42G] belongs 0.05.
For the variant GGCAUAGCUCAACACAGAGUGGUAAAGUGGCUGUGGCUAUACUGUC [G5U C18A C23U G40U C45U], the self-cleavage was 0.03.
To GGCAUAGCUUAACACAGCGUGGCAAAGGUGCUGUGGCUAGACCGCC [G5U C10U U28G G29U U43C] belongs 0.01.
For the variant GGCAUAGCUCAACACAGGAUGGCAAAGUGGCUGUGGCUAGACUGCC [G5U C18G G19A], the self-cleavage amounted to 0.03.
To GGCAUAGCUCAAUAAAGGGUUGCAAAGUGGCUGUGGCUAGACUGCC [G5U C13U C15A C18G G21U] belongs 0.07; to GGCAUAGCUCAACACAGAGUGGCAAGGUGGCUGUGGCUAUACUGCC [G5U C18A A26G G40U], 0.03; to GGCAUAGCUCAAAACAGCGUGGCAAAGUGGCGGUGGCUAGACUGCC [G5U C13A U32G], 0.04.
For the variant GGCAUAGCUCAACACAGAGUGGCAAGGUGGUUGUGGCUAGACUGCC [G5U C18A A26G C31U], the self-cleavage was found to be 0.02.
Consider GGCAUAGCUCAAUACAGCGUGGCAAAGUGGCAGUGGCUAGACUGCC [G5U C13U U32A], for which the self-cleavage amounted to 0.02.
As to GGCAUAGCUCAAAACAGCGUGGCAAAGUGGCUGUGGCUAGACUACC [G5U C13A G44A], the self-cleavage came out at 0.01.
To GGCAUAGCUCAACAAAGCAUGGGAAAGUGGCUGUGGCUAGCAUGCA [G5U C15A G19A C23G A41C C42A C46A] belongs 0.06.
As for GGCAUAGCUCAACAGAGCGUGGAAUAGUGGCUGUGACUAGAUUGCC [G5U C15G C23A A25U G36A C42U], the figure is 0.05; as for GGCAUAGCUCAAUACAACGUGGCACAGUGGCUGUGGCUAGACUGCC [G5U C13U G17A A25C], 0.05; as for GGCAUAGCUCAAAACAGCGUGGCAAAGUGGCUGUGGCUAGACUGCG [G5U C13A C46G], 0.02.
To GGCAUAGCUCAACACAGCGUGGCAAAGUGGAUGUGGCUUGACUGCC [G5U C31A A39U] belongs 0.04; to GGCAUAGCUCAACACAGCGUGGAAAAGUGGCUGUGACUAGACUGCC [G5U C23A G36A], 0.07; to GGCAUAGCUCAACACAGAUUGGCUAAGUGGCUGUGGCUAGACUUCC [G5U C18A G19U A24U G44U], 0.02.
Take GGCAUAGCUCAAAACAGCGUGGCAAAGUGGCUGUGGCUAAACUGCC [G5U C13A G40A]: the self-cleavage came out at 0.1.
Regarding GGCAUAGCUCAACACAGCGUGGUAAAGUGGCUGUGGCUAUGCUGCC [G5U C23U G40U A41G], the self-cleavage was found to be 0.05.
As for GGCAUAGCUCAAUACAGCGUGGCAAAGUGGCUGUGGCUAUACUGCC [G5U C13U G40U], the figure is 0.05.
On to GGCAUAGCUCAACACAGUGUGGCAAAGUUGCUGUUGCUAGACUGCC [G5U C18U G29U G35U], for which the self-cleavage turned out to be 0.03.
As to GGCAUAGCUCAAGACAGCGUGGCAAAGUUGCUGUGGCUAGACUGCC [G5U C13G G29U], the self-cleavage came out at 0.09.
As for GGCAUAGCUCAACACAGAGUGGCAAAGUGGCUGCGGCUAGACUGCC [G5U C18A U34C], the figure is 0.19.
As for GGCAUAGCUCAAAACAGCGUUGCAAUGUGGCUGUGGCUAGACUGCC [G5U C13A G21U A26U], the figure is 0.17.
To GGCAUAGCUCAAAACAGCGUGGCAAGGUGGUUGUGGCUUGACUGCG [G5U C13A A26G C31U A39U C46G] belongs 0.04.
As to GGCAUAGCUCAAUAGAGCGUGGGAAAGUGGCUGUGGCUAGACUGCC [G5U C13U C15G C23G], the self-cleavage amounted to 0.06.
For the variant GGCAUAGCUCAACACAGAGUGGCAAAGUGGCUGUGGCUAGGCUGCC [G5U C18A A41G], the self-cleavage was 0.02.
As for GGCAUAGCUCAACAAAGCGUGGCAGAGUGGCUGUGGCUAGACUGCC [G5U C15A A25G], the figure is 0.04.
As for GGCAUAGCUCAACACAGCGUGGAACAGUGGCUGCGGCUAGACUGCC [G5U C23A A25C U34C], the figure is 0.04; as for GGCAUAGCUCAACAGAGCGUGGCACAGUGGCUGUGGCUAGACUUCC [G5U C15G A25C G44U], 0.02; as for GGCAUAGCUCAACACAGCGUGGAAAAGUGGUUGUGGCUAGACUGCC [G5U C23A C31U], 0.02.
For GGCAUAGCUCAACACAGCGUGGUAAAGUGGCUGUGGCUAGACUGAC [G5U C23U C45A], the self-cleavage was determined as 0.1.
Take GGCAUAGCUCAACAUAGCGUGGCAAAGUGGCGGUGGCUAGACUGCC [G5U C15U U32G]: the self-cleavage was 0.1.
Take GGCAUAGCUCAACACAGCGUGGCAAAGUGGGUGUGGCUAGACUUCC [G5U C31G G44U]: the self-cleavage was found to be 0.03.
Take GGCAUAGCUCAACACAGGGUUUCAAAGUGGCUGUGGCUAGACUGCC [G5U C18G G21U G22U]: the self-cleavage turned out to be 0.07.
With GGCAUAGCUCAACACAGGGUGGCAAAGUGGCUGUUGCUAGACUACC [G5U C18G G35U G44A], the self-cleavage was determined as 0.01.
On to GGCAUAGCUUAACACAGCGUGUCAAAGUGGCUGUGGCUAGACUGCC [G5U C10U G22U], for which the self-cleavage amounted to 0.91.
As to GGCAUAGCUUAACACAGCGUGGCAAAGUUGCUGUGGCUAGACUGCC [G5U C10U G29U], the self-cleavage worked out at 0.04.
GGCAUAGCUCAACACAGCGUGGAUAAGUGGCUGUGGCUCGACUGCU [G5U C23A A24U A39C C46U]: the self-cleavage worked out at 0.03.
To GGCAUAGCUCAAGACAGCGUGGCAAAGUGGCUGUGGCGAGCCUGCC [G5U C13G U38G A41C] belongs 0.02; to GGCAUAGCUCAACACAGCGUGGCAAAGUGGCUGUGGAUAGAAUGAC [G5U C37A C42A C45A], 0.01; to GGCAUAGCUCAACAUAGGGUGGAAAAGUGACUGUGGCUAGAUUGCC [G5U C15U C18G C23A G30A C42U], 0.03.

The values are drawn from the RNAGym collection of RNA variant scans (doi:10.7554/elife.90254).
